Measured values published in PMC10528447 (Nature structural & molecular biology, 2023).

Target: the molecule itself
Assay: negative-stain EM

B1: MBP-DELE1^CTD-R403A F431S (domain or fragment)
chain: not shown
  stoichiometry N: 4
